Experiment [1] concerns the target T1, cynomolgous monkey LAG3 expressed on cells (cynomolgous monkey). The experiment can be described thus: cell based KinExA, BaF/3 cells transfected with cynomolgus LAG3 (n=2). (In general: Kinetic exclusion samples the free partner from a solution-phase mixture.)
For experiment [2], the target named is T1, cynomolgous monkey LAG3 expressed on …. The experiment can be described thus: flow cytometry, PHA-activated cynomolgus CD4+ T cells (3 donors). In general terms: In flow cytometry, cells or beads pass a laser one at a time.
For experiment [3] the target is unchanged. The experiment can be described thus: flow cytometry, PHA-activated cynomolgus CD8+ T cells (3 donors).
Experiment [4] has the same target. Description: cell based KinExA, BaF/3 cells transfected with cynomolgus LAG3 (n=3).

Among the data in patent publication US20190083615A1 are Kd and EC50 values, retold here.

Residue numbers refer to the chain shown, from its start.

B1: Ab5: humanized light chain 45AGX Humanized x[LAG3_H] mAb (LB145.22D2.E1.D1 (VL3)) Kappa (PX) and humanized heavy chain 57AHH Humanized x[LAG3_H] mAb … (antibody)
heavy: QMQLVQSGPEVKKPGTSVKVSCKASGYTFTDYNVDWVRQARGQRLEWIGDINPNNGGTIYAQKFQERVTITVDKSTSTAYMELSSLRSEDTAVYYCARNYRWFGAMDHWGQGTTVTVSSASTKGPSVFPLAPCSRSTSESTAALGCLVKDYFPEPVTVSWNSGALTSGVHTFPAVLQSSGLYSLSSVVTVPSSSLGTKTYTCNVDHKPSNTKVDKRV[human IgG4 Fc with S228P (EU numbers) not spelt out]
light: DIVMTQTPLSLSVTPGQPASISCKASQSLDYEGDSDMNWYLQKPGQPPQLLIYGASNLESGVPDRFSGSGSGTDFTLKISRVEAEDVGVYYCQQSTEDPRTFGGGTKVEIKRTVAAPSVFIFPPSDEQLKSGTASVVCLLNNFYPREAKVQWKVDNALQSGNSQESVTEQDSKDSTYSLSSTLTLSKADYEKHKVYACEVTHQGLSSPVTKSFNRGEC
The term Kd denotes the free concentration of one partner at which half of the binding sites on the other are occupied at equilibrium, for simple one-to-one binding. With B1, the Kd in experiment [1] turned out to be 0.025 nM.

B2: Ab8: humanized light chain 45AGX Humanized x[LAG3_H] mAb (LB145.22D2.E1.D1 (VL3)) Kappa (PX) and humanized heavy chain 80AHG Humanized x[LAG3_H] mAb … (antibody)
heavy: B1 heavy with N55Q
light: B1 light
In general, EC50 refers to the concentration at which the effect is half-maximal. In the case of B2, the half-maximal effective concentration (EC50) in experiment [2] was found to be 0.027 nM; in experiment [3] it was 0.031 nM. Besides, in experiment [1], the Kd came to 0.016 nM.

B3: Ab6: humanized light chain 45AGX Humanized x[LAG3_H] mAb (LB145.22D2.E1.D1 (VL3)) Kappa (PX) and humanized heavy chain 73AHD Humanized x[LAG3_H] mAb … (antibody)
heavy: B1 heavy with N55D
light: B1 light
Turning to B3, the dissociation constant Kd in experiment [4] amounted to 0.012 nM. Besides, the EC50 in experiment [2] and in experiment [3] was 0.03 nM in each case.

B4: Ab7: humanized light chain 45AGX Humanized x[LAG3_H] mAb (LB145.22D2.E1.D1 (VL3)) Kappa (PX) and humanized heavy chain 21AHG Humanized x[LAG3_H] mAb … (antibody)
heavy: B1 heavy with N55S
light: B1 light
Regarding B4, the EC50 stood at 0.035 nM in experiment [2] and 0.041 nM in experiment [3]. Also, the dissociation constant Kd in experiment [1] is 0.011 nM.
